Assay results as given in PMC4336329 (PLoS ONE, 2015).
Hit rate of the full screen: of about 310,000 compounds, about 14,000 (4.5%) showed an effect of 50% or more. The effect is printed as a negative number. The list shows a part of the results.

These compounds were tested against human ether-à-go-go-related gene (hERG) potassium channel (human, UniProt Q12809) (assay: primary screen, population patch clamp on CHO cells stably expressing hERG).
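Further: peak tail current of the secondary pulse compared with the same well before compound.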

human ether-à-go-go-related gene (hERG) potassium channel, sequence (Q12809 whole entry, looked up): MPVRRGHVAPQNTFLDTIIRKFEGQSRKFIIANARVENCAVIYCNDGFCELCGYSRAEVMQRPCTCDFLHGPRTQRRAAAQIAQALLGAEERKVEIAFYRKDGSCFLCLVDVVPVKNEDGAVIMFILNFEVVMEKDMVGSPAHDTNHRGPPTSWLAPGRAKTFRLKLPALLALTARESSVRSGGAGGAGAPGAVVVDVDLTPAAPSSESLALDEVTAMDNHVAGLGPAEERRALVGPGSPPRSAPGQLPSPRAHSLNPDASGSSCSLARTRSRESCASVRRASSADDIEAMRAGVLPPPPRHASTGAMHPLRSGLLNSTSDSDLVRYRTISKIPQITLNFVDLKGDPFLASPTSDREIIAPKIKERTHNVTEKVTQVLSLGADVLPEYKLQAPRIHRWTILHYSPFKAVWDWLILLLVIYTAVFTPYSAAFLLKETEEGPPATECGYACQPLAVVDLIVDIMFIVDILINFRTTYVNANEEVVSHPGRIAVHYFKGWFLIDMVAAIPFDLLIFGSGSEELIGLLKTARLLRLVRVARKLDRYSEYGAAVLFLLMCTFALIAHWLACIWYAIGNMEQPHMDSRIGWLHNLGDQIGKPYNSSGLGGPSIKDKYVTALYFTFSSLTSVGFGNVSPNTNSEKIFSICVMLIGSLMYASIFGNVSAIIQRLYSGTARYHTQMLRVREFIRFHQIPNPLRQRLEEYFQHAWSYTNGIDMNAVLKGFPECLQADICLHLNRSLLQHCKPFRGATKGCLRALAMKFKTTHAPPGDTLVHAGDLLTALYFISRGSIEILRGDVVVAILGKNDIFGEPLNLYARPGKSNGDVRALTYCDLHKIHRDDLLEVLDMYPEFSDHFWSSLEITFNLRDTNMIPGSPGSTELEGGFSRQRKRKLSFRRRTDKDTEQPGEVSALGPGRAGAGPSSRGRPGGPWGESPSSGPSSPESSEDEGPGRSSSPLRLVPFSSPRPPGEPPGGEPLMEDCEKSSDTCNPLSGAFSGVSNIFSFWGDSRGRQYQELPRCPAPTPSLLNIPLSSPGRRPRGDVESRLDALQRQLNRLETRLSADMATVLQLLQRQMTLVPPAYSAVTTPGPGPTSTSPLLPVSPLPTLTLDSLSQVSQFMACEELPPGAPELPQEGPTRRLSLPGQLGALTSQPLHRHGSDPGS

SMILES	hERG current change (%, negative = inhibition) at 10uM [%]
CC(=O)c1ccc(N=C2SCCCN2C(=O)C2CCCCC2)cc1	5.8
Cn1c(CC(=O)Nc2ccc(Cl)c(Cl)c2)nnc1SCC(=O)Nc1nccs1	-3.76
CCCC(=O)c1ccc(N2CCCC2)c(F)c1	6.96
N#CCN(C(=O)COC(=O)CCCNC(=O)c1ccc(Cl)cc1)c1ccccc1	-26
CCCn1c2ccccc2c2cnn(CC(=O)NC3CCCCC3)c(=O)c21	2.23
Cc1ccc2nc(SCn3nnc4ccccc4c3=O)[nH]c2c1	18
Clc1ccc(/C=N/Nc2ncnc3nc[nH]c23)cc1	-33.6
C=CCNCCCCOc1c(Cl)cc(C)cc1Br.O=C(O)C(=O)O	-31.7
Cc1ccccc1C(=O)Nc1ccnn1C1CCN(Cc2cnn(C(C)C)c2)CC1	-72.3
Cc1onc(-c2ccccc2)c1C(=O)N1CCN(S(=O)(=O)c2ccc(Cl)cc2)CC1	-21.5
COc1cc(C(c2sc3nc(C)nn3c2O)N2CC(C)CC(C)C2)cc(OC)c1OC (centres unmarked)	-1.84
Cc1cc(C(=O)CSc2n[nH]c(N)n2)c(C)n1-c1ccc(F)cc1	-1.14
Cc1ccc[n+](CC(=O)c2ccc(Br)cc2)c1C.[Br-]	-4.55
Cc1cc(C)n(-c2ccc(-n3ccnc3)nn2)n1	-4.08
O=C(c1ccc(Cl)c(Cl)c1)N1CCN(Cc2ccc3c(c2)OCO3)CC1	-35.7
CN1CCN(CC(=O)Nc2c(C(=O)C3CC3)oc3ccccc23)CC1	-52.4
O=C(CN(Cc1ccc2c(c1)OCO2)C(=O)CNS(=O)(=O)c1ccccc1)NCC1CCCO1 (centres unmarked)	7.4
Cc1ccc(NC(=O)CSc2ccc(C(N)=O)cc2[N+](=O)[O-])cc1	1.12
O=C(NC1CCCCC1)C1CCN(S(=O)(=O)c2cccc3nonc23)CC1	5.97

SMILES	hERG current change (%, negative = inhibition) at 10uM [%]
CCCOc1ccc(-c2cn3ccccc3n2)cc1[N+](=O)[O-]	-5.57
CNc1oc(-c2ccc(Cl)cc2)nc1P(=O)(c1ccccc1)c1ccccc1	12.6
O=C(NNC(=O)C1C2CCC(C2)C1C(=O)O)c1ccc(Cl)cc1 (centres unmarked)	16
CCOC(=O)C(C)Sc1nc(-c2ccccc2)nc2ccccc12 (centres unmarked)	17.5
Cc1ccccc1OCC(=O)Nc1ccc2c(c1)COC2=O	-4.65
CCC(=O)c1ccc(OCC(=O)Nc2ccc3nc(C)sc3c2)cc1	6.06
O=C(Cc1ccc([N+](=O)[O-])cc1)Nc1nnc(C2CC2)s1	4.33
N#C/C(=C(/O)COc1cccc2ccccc12)c1nc2ccccc2[nH]1	2.21
Cn1cnnc1SCCNS(=O)(=O)c1cccc([N+](=O)[O-])c1	2.39
Cc1cc2c3c(c1)C(C)CC(C)(C)N3C(=O)C2=C(C#N)C#N (centres unmarked)	14.1
CC(C)(C)c1ccc(C(=O)OCC(=O)Nc2sc3c(c2C#N)CCC3)cc1	-12.4
O=C(O)CC(NS(=O)(=O)c1cccc2nsnc12)c1ccc(F)cc1 (centres unmarked)	-17.2
CCc1nn(CC(=O)NCCCN(CC)Cc2ccccc2)c(=O)c2cc3sccc3n12	-50.2
CN(CCc1ccccn1)C(=O)Nc1cc(Cl)cc(Cl)c1	-40
Cc1ccc(C(=O)NCC(=O)NCC(=O)OCc2ccc(F)cc2)cc1	6.83
CC(C)CCNS(=O)(=O)c1ccc(-c2ccc(S(=O)(=O)NCCC(C)C)cc2)cc1	17.4
COc1cccc(-c2cc(C(=O)NCc3ccco3)c3ccccc3n2)c1	-18.7
CCc1ccc(OCC(=O)Nc2nnc(C3CCCC3)s2)cc1	14.2
Cc1cc(C(=O)CN2C(=O)NC3(CCCCC3C)C2=O)c(C)n1Cc1cccs1 (centres unmarked)	-6.58

SMILES	hERG current change (%, negative = inhibition) at 10uM [%]
CCOC(=O)COc1cc(N)c(Cl)cc1Cl	4.53
CCCOc1ccc(Br)cc1/C=N/NC(=O)c1cc(OC)c(OC)c(OC)c1	5.28
COc1cc2c(cc1OC)CN(C(=O)c1ccc3[nH]c(C)c(C)c3c1)CC2	-7.61
CN(C)S(=O)(=O)N1CCC(Oc2ccc(C(=O)NCCc3cscn3)cc2)CC1	0.0832
COC(=O)C1=C(C)NC(=O)NC1c1ccc(-c2ccccc2Cl)o1 (centres unmarked)	29.2
CCOc1ccc(OCCCC(=O)NC2=NCCS2)cc1	16.9
COc1ccc(N(CC(=O)NCCSCc2cccc(Cl)c2)S(C)(=O)=O)cc1	-20.7
O=C(Nc1nnc(S(=O)(=O)N2CCOCC2)s1)c1ccccc1Br	4.05
CSC(=O)NC(=O)NC(=O)c1ccc([N+](=O)[O-])cc1	15.6
COc1ccccc1C1CC(c2cccc(NS(C)(=O)=O)c2)=NN1S(=O)(=O)c1ccccc1 (centres unmarked)	3.08
Cn1c(SCC(=O)NNC(=S)Nc2ccccc2)nnc1-c1ccccc1	17.5
Cc1ccc(NC(=S)NNC(=O)c2nnn(-c3ccccc3)c2C)cc1	4.82
CN(C)CCCNCC(=O)c1c(-c2ccccc2)n(C)c2ccccc12.O=C(O)C(=O)O	-16
CC(=O)c1cccc(NC(=O)CCCNC(=O)c2ccc(Cl)cc2)c1	2.99
COc1ccc(Cc2nc3ccc(C(=O)NC(C)C)cc3o2)cc1	9.7
COc1cccc(C(C(=O)NC(C)(C)C)N(C(=O)CCC(=O)Nc2cc(C)on2)C2CC2)c1OC (centres unmarked)	14.9
CCCc1cc(-c2nc(N)ncc2-c2csc(C)n2)c(O)cc1OC	-9.9
COc1ccc(CCNC(=O)c2nnn(-c3cc(C)cc(C)c3)c2N)cc1OC	-10.8
